# Assay results taken from the antibiotic and cytotoxicity screens of Wong et al. (2023).
# Some of the results follow.
# Tested on: HepG2
# Experiment: cytotoxicity call (relative viability < 0.9)
# Conditions: 10 µM
row,Structure (SMILES),cytotoxicity call
1,C[C@H](CO)N1C[C@H](C)[C@H](CN(C)C(=O)Nc2ccccc2)OCCCC[C@H](C)Oc2ccc(NC(=O)Nc3ccc(F)cc3)cc2C1=O,inactive
2,CC(=O)Nc1c(I)c(NC(C)=O)c(I)c(C(=O)O)c1I,inactive
3,C[C@H](CO)N1C[C@H](C)[C@H](CN(C)S(=O)(=O)c2cccs2)OCCCC[C@H](C)Oc2ccc(NC(=O)C3CCCCC3)cc2C1=O,inactive
4,O=C(CN1CCOCC1)N[C@H]1CC[C@H](CCNS(=O)(=O)c2ccccc2F)O[C@@H]1CO,inactive
5,COc1cccc(C#Cc2cnc3c(c2)C(=O)N([C@@H](C)CO)C[C@@H](C)[C@@H](CN(C)C(=O)C2CCOCC2)O3)c1,inactive
6,COc1cccc(NC(=O)N[C@H]2CC[C@H](CC(=O)N3CCN(C)CC3)O[C@@H]2CO)c1,inactive
7,CO[C@@H]1CN(C)C(=O)c2ccc(NC(=O)CC(F)(F)F)cc2OC[C@H](C)N(C(=O)C2CCOCC2)C[C@H]1C,inactive
8,C[C@@H]1CN([C@@H](C)CO)C(=O)c2c(c3ccccc3n2C)-c2ccccc2CO[C@@H]1CN(C)C(=O)N[C@H](C)c1ccccc1,inactive
9,C[C@H](CO)N1C[C@H](C)[C@@H](CN(C)CC2CCCCC2)Oc2ccc(NC(=O)Nc3cccc4ccccc34)cc2C1=O,inactive
10,CO[C@H]1CN(C)C(=O)c2cc(NS(=O)(=O)CC(F)(F)F)ccc2OC[C@H](C)N(C(=O)c2ccc3c(c2)OCO3)C[C@H]1C,inactive
11,CCCNC(=O)N(C)C[C@H]1Oc2cc(-c3ccccc3F)ccc2S(=O)(=O)N([C@@H](C)CO)C[C@H]1C,inactive
12,O=C(C[C@@H]1CC[C@@H]2[C@H](COC[C@H](O)CN2S(=O)(=O)c2ccc(Cl)cc2)O1)NCc1ccncn1,inactive
13,CCCCCN1CC=C[C@@]23O[C@@H]4C=CCOC(=O)[C@@H]4[C@H]2C(=O)N([C@@H](C)CO)[C@@H]3C1=O,inactive
14,C[C@@H]1CN([C@@H](C)CO)C(=O)CCCn2cc(nn2)CO[C@@H]1CN(C)C(=O)C1CC1,inactive
15,COc1ccc(S(=O)(=O)Nc2ccc3c(c2)C(=O)N([C@@H](C)CO)C[C@@H](C)[C@H](CN(C)S(=O)(=O)c2cccs2)O3)cc1,inactive
16,COc1ccc2c3c([nH]c2c1)[C@@H](CO)N(C[C@]13CN(Cc2nccs2)C1)S(=O)(=O)c1ccc(cc1)C,inactive
17,C=CCN1C(=O)C[C@@H]2[C@@H]1CCN2c1cnccn1,inactive
18,C[C@@H]1CN([C@H](C)CO)S(=O)(=O)c2ccc(C#Cc3ccccc3)cc2O[C@@H]1CN(C)C(=O)CN(C)C,active
19,COc1ccc(NC(=O)Nc2ccc3c(c2)C(=O)N([C@@H](C)CO)C[C@H](C)[C@@H](CN(C)CC2CC2)OCCCC[C@H](C)O3)cc1,inactive
20,CO[C@H]1C[C@@H](C[C@@H](C)[C@H]2CC(=O)[C@@H](C)/C=C(/C)[C@@H](O)[C@@H](OC)C(=O)[C@@H](C)C[C@@H](C)C=C/C=C\C=C(C)[C@H](OC)C[C@H]3CC[C@@H](C)[C@@](O)(O3)C(=O)C(=O)N3CCCC[C@@H]3C(=O)O2)CC[C@@H]1O,inactive
21,C[C@H]1CN([C@@H](C)CO)C(=O)c2cc(-c3cccc(C#N)c3)cnc2O[C@H]1CN(C)C(=O)c1cnccn1,inactive
22,COc1ccccc1CN(C)C[C@@H]1OCc2ccccc2-c2c(n(C)c3ccccc23)C(=O)N([C@H](C)CO)C[C@@H]1C,inactive
23,CCCNC(=O)N1C[C@@H](C)[C@H](OC)CN(C)C(=O)c2cc(NS(=O)(=O)CC(F)(F)F)ccc2OC[C@@H]1C,inactive
24,COc1ccc(S(=O)(=O)Nc2cccc3c2O[C@@H](CN(C)Cc2ccncc2)[C@@H](C)CN([C@@H](C)CO)C3=O)cc1,inactive
25,COc1ccccc1-c1cccc(-c2nc(C(=O)Nc3nccs3)cc3c2[C@@H](CCO)N(C(=O)CC2CC2)C3)c1,active
26,C[C@@H]1CN([C@H](C)CO)C(=O)c2cc(NC(=O)Nc3ccc(F)cc3)ccc2O[C@@H](C)CCCCO[C@H]1CN(C)C(=O)Nc1ccc(C(F)(F)F)cc1,active
27,CS(=O)(=O)NC[C@@]12COC[C@H]1CN(C(=O)COC1CCCC1)C2,inactive
28,O=C1C(Cl)=C2OC[C@@]2(O)C[C@@H]2CCCN12,inactive
29,C[C@H](CO)N1C[C@H](C)[C@H](CN(C)CC2CC2)Oc2c(NS(=O)(=O)c3cn(C)cn3)cccc2C1=O,inactive
